± gives the uncertainty stated by the source. The full ranking holds about 9,900 compounds; the median of “viability index relative to DMSO control” is about 1, and the lowest 2% start at about 0.85. This is one part of the list.
System: Plasmodium falciparum NF54 stage V gametocytes
Experiment: viability index relative to DMSO control (fraction); higher = less gametocyte killing
Conditions: 2.5 µM, incubation time: 72 h
Summary of the method: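 Gametocytes (P. falciparum NF54, stage V) were treated with compound at 2.5 µM for 72 hr at 37°C in low oxygen, in serum-free medium at 0.75% gametocytemia and 1.25% hematocrit. Counts of 20–70 µm2 red particles, taken from one field per well after MitoTracker Red CMXRos with saponin, were divided by the plate mean of solvent-only wells. This ratio is the viability index.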

[1] = library set: Broad Institute DOS

Compound	viability index [1]	viability index (library set: Broad Institute Blood Stage)
CCNC(=O)c1cc2c(c(-c3cccc(Br)c3)n1)[C@H](CCO)NC2	0.992 ± 0.12	
C[C@@H]1CN([C@H](C)CO)C(=O)CCCn2cc(nn2)CO[C@H]1CN(C)S(=O)(=O)c1cccc(C#N)c1	1.06 ± 0.062	
CCS(=O)(=O)Nc1ccc2c(c1)C(=O)N(C)[C@@H]1CC[C@@H](CC(=O)NCc3ccccc3F)O[C@@H]1CO2	1.14 ± 0.16	
C/C=C/c1ccc([C@H]2[C@@H]3CN(Cc4cccc(OC)c4)C[C@H]2N3)cc1	0.95 ± 0.064	
C/C=C/c1ccc([C@H]2[C@@H](CO)N(CC3CCCCC3)[C@@H]2CNC(C)C)cc1		0.565 ± 0.068
O=C(C[C@H]1CC[C@H]2[C@@H](COC[C@@H](O)CN2C(=O)c2cnccn2)O1)NCc1ccc(Cl)cc1	1.02 ± 0.023	
Cc1ccc(S(=O)(=O)N(C)C[C@H]2OCCCC[C@@H](C)Oc3ccc(NC(=O)c4ccncc4)cc3C(=O)N([C@H](C)CO)C[C@@H]2C)cc1	1.023 ± 0.0052	
C[C@@H]1CCCCO[C@@H](CN(C)C(=O)Nc2ccc3c(c2)OCO3)[C@H](C)CN([C@@H](C)CO)C(=O)c2cc(NS(=O)(=O)c3ccc(F)cc3)ccc2O1	1.05 ± 0.031	
Cc1noc(C)c1S(=O)(=O)N(C)C[C@@H]1OCc2ccccc2-c2ccccc2C(=O)N([C@H](C)CO)C[C@H]1C	1.06 ± 0.051	
CCCNC(=O)N1[C@@H](C#N)[C@H](c2ccccc2-c2ccccc2F)[C@@H]1CO	0.959 ± 0.02	
CC(C)CC#Cc1ccc([C@H]2[C@H]3CN(C(=O)c4cccc(F)c4)CC(=O)N3[C@H]2CO)cc1	0.9541 ± 0.0077	
C[C@@H]1CN([C@@H](C)CO)C(=O)c2ccccc2-c2ccccc2CO[C@@H]1CN(C)C(=O)Nc1cccc(C(F)(F)F)c1	1.03 ± 0.12	
COc1ccccc1S(=O)(=O)N[C@H]1C=C[C@@H](CC(=O)N2CCOCC2)O[C@H]1CO	1.09 ± 0.12	
COc1ccc(-c2cn(CC[C@@H]3CC[C@H](NC(=O)c4cnccn4)[C@@H](CO)O3)nn2)cc1	1.16 ± 0.058	
C/C=C/c1ccc([C@@H]2[C@@H](CO)N(C(=O)c3cnccn3)C23CN(C(=O)C2CCC2)C3)cc1	1.03 ± 0.013	
N#Cc1cccc(-c2ccc3c(c2)[C@@H]2[C@@H](CCN2S(=O)(=O)c2ccc(F)cc2)[C@@H](CO)N3)c1	0.855 ± 0.011	
O=C(C[C@H]1C=C[C@@H](NC(=O)Nc2cccc(F)c2)[C@H](CO)O1)NCC1CCCCC1	0.942 ± 0.015	
C[C@@H]1CN([C@@H](C)CO)S(=O)(=O)c2ccc(-c3cccc(C#N)c3)cc2O[C@H]1CN(C)C(=O)c1ccccc1	0.967 ± 0.038	
CCCC(=O)Nc1ccc2c(c1)C(=O)N(C)C[C@H](OC)[C@@H](C)CN(Cc1ccc(F)cc1)[C@@H](C)CO2	1.05 ± 0.066	
C[C@@H]1CN([C@@H](C)CO)C(=O)c2cc(NS(=O)(=O)c3cccs3)ccc2O[C@@H]1CN(C)S(=O)(=O)c1ccc(Cl)cc1	1.04 ± 0.015	
CCC(=O)N1[C@H](CO)[C@H](c2ccc(C#CC(C)(C)O)cc2)[C@@H]1CN(C)C(C)=O	1.07 ± 0.064	
Cc1ccc(S(=O)(=O)N2C[C@@H]3[C@H](c4ccccc42)[C@H](CO)N3Cc2cccnc2)cc1	1.04 ± 0.024	
Cc1ccccc1-c1ccc([C@H]2[C@H](CO)N3C(=O)CN(C(=O)c4ccncc4)C[C@@H]23)cc1	0.978 ± 0.036	

Compound	viability index [1]	viability index (library set: Broad Institute Blood Stage)
CCCNC(=O)Nc1ccc2c(c1)C(=O)N(C)[C@H]1CC[C@H](CC(=O)Nc3cc(F)ccc3F)O[C@@H]1CO2	0.972 ± 0.018	
C[C@@H](NC(=O)C[C@H]1CC[C@@H]2[C@H](COc3ccc(NS(=O)(=O)c4ccc(Cl)cc4)cc3C(=O)N2C)O1)c1ccccc1	1 ± 0.13	
Cc1cccc(S(=O)(=O)N[C@H]2CC[C@@H](CCNC(=O)Nc3cc(F)ccc3F)O[C@@H]2CO)c1	1.08 ± 0.038	
C[C@@H]1CN([C@H](C)CO)C(=O)c2cc(C3=CCCCC3)cnc2O[C@@H]1CN(C)S(=O)(=O)c1cn(C)cn1	1.01 ± 0.019	
Cc1noc(C)c1NC(=O)Nc1ccc2c(c1)C(=O)N([C@@H](C)CO)C[C@@H](C)[C@@H](CN(C)Cc1ccc3c(c1)OCO3)OCCCC[C@@H](C)O2	1.15 ± 0.058	
C[C@H](CO)N1C[C@H](C)[C@@H](CN(C)CC2CCCCC2)Oc2ccc(NS(=O)(=O)c3cccs3)cc2CC1=O	0.989 ± 0.099	
C[C@@H]1CN([C@@H](C)CO)C(=O)CCCn2nncc2CO[C@@H]1CN(C)C(=O)Nc1ccnc(N2CCOCC2)c1	1.055 ± 0.01	
O=C(CN1CCOCC1)N1[C@H](CO)[C@H]2c3ccccc3NC[C@H]21	1 ± 0.088	
CO[C@H]1CN(C)C(=O)c2ccc(NC(=O)Nc3cc(F)ccc3F)cc2OC[C@@H](C)N(C(=O)c2ccccn2)C[C@H]1C	1.087 ± 0.0073	
O=C(C[C@@H]1C[C@H]2c3cc(NC(=O)c4cccnc4)ccc3O[C@H]2[C@H](CO)O1)NCc1cc(F)ccc1F	0.9992 ± 0.0069	
O=C(C[C@@H]1CC[C@H]2[C@@H](COC[C@@H](O)CN2Cc2nccs2)O1)NCc1ccccc1Cl	1.01 ± 0.061	
COc1ccc(NC(=O)N2C[C@@H]3[C@H](c4ccccc42)[C@H](CO)N3Cc2ccccn2)cc1	0.993 ± 0.11	
N#C[C@@H]1[C@H](c2ccc(-c3cccc(F)c3)cc2)[C@H](CO)N1C(=O)NC1CCCC1	0.743 ± 0.059	
O=C(C[C@@H]1CC[C@@H]2[C@H](COC[C@@H](O)CN2S(=O)(=O)c2ccccc2)O1)NCC1CCCCC1	0.979 ± 0.0099	
C[C@H]1CN([C@@H](C)CO)C(=O)c2c(c3ccccc3n2C)-c2ccccc2CO[C@H]1CN(C)Cc1cccc(C(F)(F)F)c1	0.952 ± 0.02	
C[C@@H]1CN([C@@H](C)CO)C(=O)c2ccccc2-c2ccccc2CO[C@H]1CN(C)C(=O)CCC(F)(F)F	0.961 ± 0.12	
O=C1CCCn2cc(nn2)COC[C@H](c2ccccc2)N1	1.06 ± 0.024	
Cc1noc(C)c1NC(=O)N(C)C[C@H]1OCCCC[C@@H](C)Oc2ccc(NC(=O)Nc3ccc(C(F)(F)F)cc3)cc2C(=O)N([C@H](C)CO)C[C@@H]1C	0.947 ± 0.037	
CO[C@@H]1CN(C)C(=O)c2cc(NC(=O)NC(C)C)ccc2OC[C@@H](C)N(Cc2ccccc2)C[C@@H]1C	0.939 ± 0.017	
O=C(C[C@H]1C[C@H]2c3cc(NC(=O)C4CCOCC4)ccc3O[C@H]2[C@@H](CO)O1)NCc1cccnc1	1.01 ± 0.041	
C[C@H]1CN([C@@H](C)CO)C(=O)c2cc(NS(=O)(=O)c3ccc(F)cc3)ccc2O[C@H]1CN(C)C(=O)Nc1ccccc1	1.02 ± 0.012	
COc1ccc(-c2ccc([C@H]3[C@H](C#N)N(C(=O)NC(C)C)[C@H]3CO)cc2)cc1	1.02 ± 0.019	
COc1ccccc1NC(=O)N1C[C@H](O)COC[C@H]2O[C@@H](CC(=O)NCCc3ccncc3)CC[C@@H]21	1.14 ± 0.082	

Compound	viability index [1]	viability index (library set: Broad Institute Blood Stage)
O=C(Nc1cccc(Cl)c1)N[C@H]1CC[C@H](CCn2cc(Cc3ccccc3)nn2)O[C@H]1CO	1.14 ± 0.068	
C[C@H]1CN([C@@H](C)CO)C(=O)c2cccc(NC(=O)c3nc4ccccc4s3)c2O[C@@H]1CN(C)C(=O)Nc1ccc2c(c1)OCO2	0.944 ± 0.015	
O=C1NCCOCc2cnnn2CC[C@@H]1Cc1ccc(F)cc1	1.07 ± 0.042	
COc1ccccc1CNC(=O)C[C@@H]1CC[C@@H]2[C@H](COC[C@@H](O)CN2Cc2ccc3c(c2)OCO3)O1	1.088 ± 0.0018	
Cc1ccc(S(=O)(=O)Nc2ccc3c(c2)C(=O)N(C)[C@@H]2CC[C@H](CC(=O)NCCc4ccncc4)O[C@@H]2CO3)cc1	0.921 ± 0.019	
CN1C(=O)c2cc(NC(=O)c3ccc4c(c3)OCO4)ccc2OC[C@@H]2O[C@@H](CC(=O)O)CC[C@H]21	1.1346 ± 0.00065	
COc1ccc(-c2ccc3c(c2)[C@H]2[C@H](CCN2Cc2cncnc2)[C@H](CO)N3)cc1	1.07 ± 0.022	
O=C(C[C@H]1CC[C@@H]2[C@H](COC[C@@H](O)CN2C(=O)c2ccncc2)O1)NCc1cc(F)cc(F)c1	1.06 ± 0.056	
Cc1noc(C)c1NC(=O)Nc1ccc2c(c1)C(=O)N([C@H](C)CO)C[C@H](C)[C@H](CN(C)Cc1ccc3c(c1)OCO3)OCCCC[C@H](C)O2	1.15 ± 0.15	
CCC(=O)N1[C@H](CO)[C@H](c2ccccc2)C12CN(C(=O)Nc1ccccc1F)C2	1.07 ± 0.071	
C[C@@H]1CN([C@@H](C)CO)C(=O)c2cccc(NC(=O)Nc3ccc(F)cc3)c2O[C@H]1CN(C)S(=O)(=O)c1ccc(Cl)cc1	0.976 ± 0.09	
C[C@H](CO)N1C[C@H](C)[C@@H](CN(C)C(=O)Nc2ccc3c(c2)OCO3)Oc2c(NC(=O)c3nc4ccccc4s3)cccc2C1=O	1.01 ± 0.041	
COc1ccc(S(=O)(=O)Nc2ccc3c(c2)CC(=O)N([C@@H](C)CO)C[C@@H](C)[C@H](CN(C)Cc2ccc(C(=O)Nc4ccccc4N)cc2)O3)cc1	0.836 ± 0.077	
CC(C)NC(=O)N(C)C[C@H]1Oc2ccc(NC(=O)c3ccncc3)cc2C(=O)N([C@H](C)CO)C[C@H]1C	1.06 ± 0.032	
CO[C@H]1CN(C)C(=O)c2cc(NC(=O)C3CCCCC3)ccc2OC[C@@H](C)N(Cc2cccnc2)C[C@@H]1C	1.1 ± 0.086	
C[C@@H]1CCn2cc(nn2)COC[C@H](C)NC1=O	1.06 ± 0.018	
C[C@@H]1CN([C@@H](C)CO)C(=O)CCCn2cc(nn2)CO[C@@H]1CN(C)S(=O)(=O)c1ccc(-n2cccn2)cc1	1.03 ± 0.037	
C[C@@H]1C/C=C/C[C@H](c2ccccc2)NC(=O)[C@H](C)N(C)C(=O)c2ccccc2O1.C[C@@H]1C/C=C\C[C@H](c2ccccc2)NC(=O)[C@H](C)N(C)C(=O)c2ccccc2O1	1.008 ± 0.0064	
C[C@H]1CN([C@@H](C)CO)C(=O)Cc2cc(NC(=O)c3ccncc3)ccc2O[C@H]1CN(C)C(=O)Nc1ccc(F)cc1	0.923 ± 0.21	
C[C@@H]1CN([C@@H](C)CO)C(=O)CCCn2nncc2CO[C@@H]1CN(C)C(=O)Nc1ccc(-c2cccs2)cc1	1.06 ± 0.048	
C[C@H](CO)N1C[C@H](C)[C@@H](CN(C)C(=O)Cc2ccccn2)Oc2ncc(-c3cccc(C(=O)N(C)C)c3)cc2C1=O	0.944 ± 0.055	
CO[C@H]1CC[C@H]2CCOc3c(C#N)cccc3C(=O)N(C)C[C@@H](OC)[C@H](C)C(=O)N(C)C[C@@H]1O2	1.025 ± 0.0061	
